Results published in the RNAGym collection of RNA variant scans (doi:10.7554/elife.90254).
The source gives no read counts; variants with many changes may rest on few reads.

B1: LINE1-mini (parent)
chain: GGCAGAGCUCAACACAGCGUGGCAAAGUGGCUGUGGCUAGACUGCC

Variants of: B1
Test: self-cleavage, relative activity (ratio to wild type); higher = more cleavage; in vitro, sequencing; the parent is a self-cleaving ribozyme
With GGCAGAGCUCAACACAGCGAGGCAAAGCGGCUGUGGCUAUACUGCC [U20A U28C G40U] the self-cleavage was 0.08.
In the case of GGCAGAGCUCAACACAGCGCGGUAAAGCGGCUGUGGCUAGACUGCC [U20C C23U U28C], the self-cleavage is reported as 1.66.
For GGCAGAGCUCAACACAGCGCGGUAAAGGGGCUGUGGCUAGACUGCC [U20C C23U U28G], the self-cleavage was 0.2.
GGCAGAGCUCAACACAGCGCGGAAAGGUGGCUGUGGCUAGACUGAC [U20C C23A A26G C45A] showed a self-cleavage of 0.18.
Work on GGCAGAGCUCAACACAGCGCGGCUAAGUGGCUGUGGCUAGACUGUC [U20C A24U C45U] yielded a self-cleavage of 1.89.
GGCAGAGCUCAACACAGCGAGGCAAAGUGGCUGUGACUAGAUUGCC [U20A G36A C42U] showed a self-cleavage of 0.05.
GGCAGAGCUCAACACAGCGAGGCAAAGUAGCUGUCGCUAGACUGCC [U20A G29A G35C] showed a self-cleavage of 0.04.
Variant GGCAGAGCUCAACACAGCGAGGCAAAGAGACUAUGGCUAGACUGCC [U20A U28A G30A G33A] has a self-cleavage of 0.07.
GGCAGAGCUCAACACAGCGCUGCAAAGUGGCUGUGGCUAGACCGCC [U20C G21U U43C] showed a self-cleavage of 0.03.
For GGCAGAGCUCAACACAGCGCCCCAAAGUGGCUGUGGAUAGACUGUC [U20C G21C G22C C37A C45U], the self-cleavage was 0.03.
GGCAGAGCUCAACACAGCGAGGCAAAGUUGCUGUGGCUUGUCUGCC [U20A G29U A39U A41U] showed a self-cleavage of 0.75.
For GGCAGAGCUCAACACAGCGAGGCAAAACGGCUGUUGCUAGACUGCC [U20A G27A U28C G35U], the self-cleavage was 0.1.
GGCAGAGCUCAACACAGCGAGGCAAAGUCGCUGCGGCUACACUGCC [U20A G29C U34C G40C] showed a self-cleavage of 0.05.
In the case of GGCAGAGCUCAACACAGCGAGGCAAAGUGGCUGUGGCUAGACUACG [U20A G44A C46G], the self-cleavage is reported as 0.01.
GGCAGAGCUCAACACAGCGAGGCAAAACGGCUGUGGCUAGACUGCC [U20A G27A U28C] gave a self-cleavage of 0.12.
Work on GGCAGAGCUCAACACAGCGCGGCAAAGUGUCUGUGGCUAGUCUGCC [U20C G30U A41U] yielded a self-cleavage of 0.3.
In the case of GGCAGAGCUCAACACAGCGCGGUAAAGGGGCUGUGGCUAGACUGUC [U20C C23U U28G C45U], the self-cleavage is reported as 0.72.
With GGCAGAGCUCAACACAGCGCGGCAAAGUGGCUGUGGUUAGACAGCC [U20C C37U U43A] the self-cleavage was 0.05.
In the case of GGCAGAGCUCAACACAGCGCGCCAAAGUGGCUGUGGUUAGACAGCC [U20C G22C C37U U43A], the self-cleavage is reported as 0.
With GGCAGAGCUCAACACAGCGCGGCAAAGUGGCUGUGGCUCGCAUGCC [U20C A39C A41C C42A] the self-cleavage was 0.
In the case of GGCAGAGCUCAACACAGCGCGGCAUAGUCGCUGUGGGUAGACUGCC [U20C A25U G29C C37G], the self-cleavage is reported as 0.01.
In the case of GGCAGAGCUCAACACAGCGAGGCAAAGUAGCUGCGGCUAGACUGCC [U20A G29A U34C], the self-cleavage is reported as 0.78.
Work on GGCAGAGCUCAACACAGCGCGGCAAAGUGGAUGCGGCUAGAGUGCC [U20C C31A U34C C42G] yielded a self-cleavage of 0.01.
GGCAGAGCUCAACACAGCGCGGGAAAGUGGCUGUAGCUAGAAUGCC [U20C C23G G35A C42A] gave a self-cleavage of 0.06.
GGCAGAGCUCAACACAGCGCCGCAAAGUGGCUGCUGCUAGACUGCC [U20C G21C U34C G35U] gave a self-cleavage of 0.05.
Work on GGCAGAGCUCAACACAGCGCGGCAAAGUGGCUGUUGCUAGCAAGCC [U20C G35U A41C C42A U43A] yielded a self-cleavage of 0.01.
GGCAGAGCUCAACACAGCGAGCCAAAGUGGCUGUAGCUUGACUGCC [U20A G22C G35A A39U] showed a self-cleavage of 0.62.
With GGCAGAGCUCAACACAGCGCGGAAAAGUAGCUGUGGCUAGACUGUC [U20C C23A G29A C45U] the self-cleavage was 1.35.
Work on GGCAGAGCUCAACACAGCGCGGCAAGGUGGCUGUGGUUAGACUGCC [U20C A26G C37U] yielded a self-cleavage of 0.02.
Work on GGCAGAGCUCAACACAGCGCGGGAAAGUUGCUGUGGCUAGACUGCC [U20C C23G G29U] yielded a self-cleavage of 0.28.
With GGCAGAGCUCAACACAGCGCGGCAAAGUAGCUGUGGCUAGAGUGCC [U20C G29A C42G] the self-cleavage was 0.02.
Work on GGCAGAGCUCAACACAGCGAGGCAAAGUGGCUGUGGCUAUAUUCCC [U20A G40U C42U G44C] yielded a self-cleavage of 0.08.
GGCAGAGCUCAACACAGCGCGGCAAAGUGGUUGAGGCUAGACUGCC [U20C C31U U34A] showed a self-cleavage of 0.03.
GGCAGAGCUCAACACAGCGCGGCAAAGUAGCUGUGGCUUGACUGCC [U20C G29A A39U] showed a self-cleavage of 0.74.
GGCAGAGCUCAACACAGCGAGUCAAACUGGCUGUGGCUAGACUGCG [U20A G22U G27C C46G] gave a self-cleavage of 0.63.
With GGCAGAGCUCAACACAGCGCGGCAAAGUGGCUCUGGCUAGAUUGCC [U20C G33C C42U] the self-cleavage was 0.02.
GGCAGAGCUCAACACAGCGAGGCAAAGUGGCUGUGCCUAGACAGCC [U20A G36C U43A] showed a self-cleavage of 0.02.
With GGCAGAGCUCAACACAGCGCGGUAAAGUGGCUGUCGCUAGAUUGCC [U20C C23U G35C C42U] the self-cleavage was 0.03.
With GGCAGAGCUCAACACAGCGCUGCAAAGUGGCUGUGGCCAGACUGCC [U20C G21U U38C] the self-cleavage was 0.14.
With GGCAGAGCUCAACACAGCGCGGCAAAGUGUCGGUGGCUUGACUGCC [U20C G30U U32G A39U] the self-cleavage was 0.01.
Work on GGCAGAGCUCAACACAGCGAGGCAAAUUUGCUGUGGCUAGACUGCC [U20A G27U G29U] yielded a self-cleavage of 0.25.
GGCAGAGCUCAACACAGCGAGGCAAAGUGGCUGUGGCUAGACUAUA [U20A G44A C45U C46A] gave a self-cleavage of 0.02.
With GGCAGAGCUCAACACAGCGCGGCAAAGUGGCUUUUGCUAGACUGUC [U20C G33U G35U C45U] the self-cleavage was 0.05.
Work on GGCAGAGCUCAACACAGCGCGGCUAAGUGGCUGUCGCUAUACUGCC [U20C A24U G35C G40U] yielded a self-cleavage of 0.03.
With GGCAGAGCUCAACACAGCGCCGCAUAGUGGCUGUGGCUAGACUGCC [U20C G21C A25U] the self-cleavage was 0.39.
GGCAGAGCUCAACACAGCGAGGCAAAGUGGCUAGGGCGAGACUGCC [U20A G33A U34G U38G] showed a self-cleavage of 0.03.
For GGCAGAGCUCAACACAGCGCGUUAAGGUGGCUGUGGCUAGACUGCC [U20C G22U C23U A26G], the self-cleavage was 0.49.
GGCAGAGCUCAACACAGCGCGGCAAAGUGGCUGUGGCUAGAGUGCG [U20C C42G C46G] showed a self-cleavage of 0.01.
With GGCAGAGCUCAACACAGCGCGGCAAUGUGGCUGUGGCUAGUUUGCC [U20C A26U A41U C42U] the self-cleavage was 0.
For GGCAGAGCUCAACACAGCGCGGCAAAGUGGCUUUAGCUAGACUGCC [U20C G33U G35A], the self-cleavage was 0.23.
Work on GGCAGAGCUCAACACAGCGAGGCAAAGUGGCUGUGGCAAGACUCCC [U20A U38A G44C] yielded a self-cleavage of 0.12.
GGCAGAGCUCAACACAGCGCGGCAAGGUGGCUGUGUCUAGACUGUC [U20C A26G G36U C45U] gave a self-cleavage of 0.04.
GGCAGAGCUCAACACAGCGAGGCAAAGCUGCUGUGGCUAGACUGCC [U20A U28C G29U] gave a self-cleavage of 0.76.
GGCAGAGCUCAACACAGCGCGGCGAAGUGGCUGUGCCUAUAUUGCC [U20C A24G G36C G40U C42U] gave a self-cleavage of 0.06.
With GGCAGAGCUCAACACAGCGCGGAAAAGUGGCCGUGGCUAGACUGCC [U20C C23A U32C] the self-cleavage was 0.16.
In the case of GGCAGAGCUCAACACAGCGCGGCAAAGUGGCUGUCGCUAGCCUGCC [U20C G35C A41C], the self-cleavage is reported as 0.04.
